Assay results: the RNAGym collection of RNA variant scans (doi:10.7554/elife.90254)
The source gives no read counts; variants with many changes may rest on few reads.

B1: LINE1-full (parent)
chain: UACGUAGGUGGUUUUCCCCUGAUAGUGCUAAGGGGGCCUGGAAGUUUGGACUGGGCAGAGCUCAACACAGCGUGGCAAAGUGGCUGUGGCUAGACUGCCUCUCUGGAUUCCUCGUCACUCAGCAGGGCAUCUCUGAGAGAAAUGCC

Variants of: B1
Experiment: self-cleavage, relative activity (ratio to wild type); higher = more cleavage; in vitro, sequencing; the parent is a self-cleaving ribozyme

| Variant | self-cleavage |
| --- | --- |
| G49U C51U A67G U73C U132C | 0.2 |
| G49U U81C U134C | 2.72 |
| G49U U87C U143C | 0.12 |
| A50C A64G U85A A107G | 0 |
| A50C A107G G114A A124C A141G | 2.17 |
| A50C U52A U62A C76U A94G | 0 |
| A50C U62C U115A | 0.07 |
| A50C U73C C113A | 1.84 |
| A50G A57G C63U | 0.28 |
| A50G A59G U73C | 0 |
| A50G A59U C98U A136U A138G | 0.56 |
| A50G A64U A77G | 0.95 |
| A50G A65G A142G | 0 |
| A50G A65G U87A | 0.07 |
| A50G A65G U130C A141G | 0 |
| A50G A65U U81C | 0 |
| A50G A67U U143A | 0.09 |
| A50G A69G U102A | 0 |
| A50G A69G U109A | 1.2 |
| A50G A77G U85C A138G | 0.48 |
| A50G A77U G127U | 0.81 |
| A50G A92G U112A | 0.46 |
| A50G A94U U102A A124G C131U | 0.56 |
| A50G A94U U112A | 0.23 |

| Variant | self-cleavage |
| --- | --- |
| A50G A107G C116A U134C | 1.09 |
| A50G A129U A141G | 0.95 |
| A50G A138G A141G | 0.44 |
| A50G A140G A142G | 0.41 |
| A50G C90A U96A | 0.02 |
| A50G C120U A138G | 1.62 |
| A50G G54U U85A A124G | 0 |
| A50G G58C A65G U134A | 0.2 |
| A50G G72U U81A G89A C101U G114A | 0.1 |
| A50G G75A C76U A79U | 1.14 |
| A50G U52A G80U A92G U119C U132C | 0 |
| A50G U52A U115C | 1.1 |
| A50G U62C A69U | 0.09 |
| A50G U62C A78G U143C | 0 |
| A50G U62C A79G | 0 |
| A50G U62C U102C U109A A140G | 0 |
| A50G U73A A140G | 1.25 |
| A50G U73A U119C | 0 |
| A50G U73A U130C A136G | 0.89 |
| A50G U73C A121C | 0 |
| A50G U73C A121U | 0 |
| A50G U73C G105A | 1.41 |
| A50G U81A U85A A117U | 0.04 |
| A50G U85A G97A A107U U109A | 0 |

| Variant | self-cleavage |
| --- | --- |
| A50G U87A U130G | 0.15 |
| A50G U91C A94U | 0.67 |
| A50G U91C A142G | 0.77 |
| A50G U91C C111U U115A | 0.25 |
| A50G U102C U112A | 1.53 |
| A50G U104C U109C C123U | 0.88 |
| A50G U108A U134C A140G | 0.8 |
| A50G U109A A140G | 0.51 |
| A50G U109G U132C | 0 |
| A50G U112A A141G | 0 |
| A50G U112C G122A | 1.18 |
| A50G U115C C120U | 2.09 |
| A50G U115C U130C | 1.67 |
| A50U A57G A59G | 0.14 |
| A50U A57G A77G U109A | 0.87 |
| A50U A57G U143C | 0.46 |
| A50U A59G U102C G137A | 0.23 |
| A50U A64G A140G | 0.27 |
| A50U A64U A117U A140G | 0.48 |
| A50U A65G U104A | 0.03 |
| A50U A65G U104C | 0.08 |
| A50U A67C U91C | 0.08 |
| A50U A69G C111U | 0.4 |
| A50U A69G U134C | 0.22 |

| Variant | self-cleavage |
| --- | --- |
| A50U A69U U73A G114A | 0.04 |
| A50U A79G U100C | 0.2 |
| A50U A140G A142G | 1.05 |
| A50U C131G U134G | 1.49 |
| A50U G53A A136U | 0.22 |
| A50U G72A A117U U143A | 1.06 |
| A50U G72C U104A U119C | 0.6 |
| A50U U62C A77U A94G | 0.04 |
| A50U U73C A136G | 1.73 |
| A50U U81C A94U C98A | 0.13 |
| A50U U81C A136G | 2.37 |
| A50U U87C C123U | 0.12 |
| A50U U108C U112C U130C | 1.37 |
| A50U U109A A117G G127A | 0 |
| C51A A64G U119A U134C A140G | 0.14 |
| C51A A77G A92G | 0.23 |
| C51A U73C A77G | 1.19 |
| C51A U73C U91C U130C A140G | 1.02 |
| C51A U100A A124C | 1.75 |
| C51U A57G A129G | 0.8 |
| C51U A64G U104A | 0.28 |
| C51U A65G U100C | 0.05 |
| C51U A77G U112C | 1.15 |
| C51U A79G A141G | 2.03 |

| Variant | self-cleavage |
| --- | --- |
| C51U A117G A140U U143C | 1.94 |
| C51U C76U A77U | 1.63 |
| C51U G60A U102A U119C | 0.03 |
| C51U G106A A142G | 1.38 |
| C51U U52C U62A U81C C99G A129G A136U | 0 |
| C51U U108C C131A | 1.84 |
| C51U U119C A140C | 1.52 |
| U52A A57G A117G U130A | 1.38 |
| U52A A57G G72U G114A | 0.48 |
| U52A A57U G125A A142G | 0.01 |
| U52A A57U U119C | 0.09 |
| U52A A64G U73C G89U G97A | 0.02 |
| U52A A65G U104A G125U | 0.05 |
| U52A A65U G114A | 0.05 |
| U52A A69G A78G A94G | 0 |
| U52A A69G A92G | 0 |
| U52A A69G A94G | 0.18 |
| U52A A78C A140G | 2.08 |
| U52A A78G U91C | 0.47 |
| U52A A78G U143A | 1.15 |
| U52A A79G U130C | 1.16 |
| U52A A92G A94U U102C A117U | 0.14 |
| U52A A94U A107G G126U | 0.41 |
| U52A A121G G144A | 1.5 |

| Variant | self-cleavage |
| --- | --- |
| U52A A124U A136G | 1.49 |
| U52A A138G A141G | 2.04 |
| U52A A138U A141G | 1.56 |
| U52A C66U A124G | 0.06 |
| U52A C90U A124U | 0.06 |
| U52A G55A U91A | 0.11 |
| U52A U62A A79G A121G | 0.09 |
| U52A U62A U96A U108C | 0.03 |
| U52A U62C A92G G106U | 0.01 |
| U52A U62C U85G G89A | 0.02 |
| U52A U73C C120A A124C | 2.84 |
| U52A U73C U143G | 0.97 |
| U52A U81C A117C | 2.63 |
| U52A U81C G89C U100C | 0 |
| U52A U85A U96C U115C | 0.49 |
| U52A U85A U112A | 0.06 |
| U52A U87G C98A U115C A140G | 0.09 |
| U52A U91C U130C | 1.41 |
| U52A U96A C123U | 0.07 |
| U52A U96C A129U | 0.18 |
| U52A U96C U104C C128G | 0.15 |
| U52A U100A U132C | 1.67 |
| U52A U102A U108C | 1.46 |
| U52A U102C U115A A136G | 0.79 |

| Variant | self-cleavage |
| --- | --- |
| U52A U108C A121C | 2.24 |
| U52A U109A U115C A117G A141G | 2.15 |
| U52A U119C A136U | 2.55 |
| U52C A57U U109C | 0 |
| U52C A59G G82A | 0.1 |
| U52C A59G U62A A64U | 0.04 |
| U52C A59U A140G | 1.08 |
| U52C A64C A69C | 0 |
| U52C A64G A124U | 0.23 |
| U52C A64U A69U G75A A77G | 0.03 |
| U52C A64U C84U | 0.05 |
| U52C A64U C118U A142G | 0.42 |
| U52C A64U U96A | 0.09 |
| U52C A65G A78G A138G | 0 |
| U52C A65G A94U U96C | 0.71 |
| U52C A65G C71G | 0.08 |
| U52C A67G U102C | 0 |
| U52C A69G U119C | 0 |
| U52C A69U A77G | 0.06 |
| U52C A77G G122C | 1.92 |
| U52C A78G U87C | 0 |
| U52C A79G A140U | 1.11 |
| U52C A79G U85A U102C | 0 |
